From the supplement of paper PMC6828730 come the findings set out here.

The structures appear in SMILES notation. Where a name gives a salt, the structure may show the parent alone. Some of the results follow. Most values come without repeats; read them as rough.

For the assay, the system named is hiPSC-derived cardiomyocytes. As to the kind of experiment: time to death of most cells in well after compound addition (days); higher = less cardiotoxic; extreme values may be limits of the assay. Particulars: screen: 4; 10 µM.
Take `COc1cc2c(c(OC)c1OC)-c1c(cc3c(c1OC)OCO3)CC(C)C(C)C2` (centres undefined) [Schisandrin B (Sch B)]: the “time to death of most cells in well” value is over 7.
As for `CC(=O)Nc1nc(C)c(-c2ccc(Cl)c(S(=O)(=O)NCCO)c2)s1`, the “time to death of most cells in well” value was over 7.
Consider `CCS(=O)(=O)Nc1ccc2[nH]c(O)c(C(=Nc3ccc(CN4CCCCC4)cc3)c3ccccc3)c2c1` [Hesperadin], for which the “time to death of most cells in well” value was over 7.
The result for `O=C(NOCC1CC1)c1ccc(F)c(F)c1Nc1ccc(I)cc1Cl` reads over 7; that for `O=C(Nc1ccccc1C(=O)NC1CCCCNC1=O)c1cc2ccccc2s1` (centres undefined), over 7; that for `COc1ccc2c(c1)c(C1=C(c3c[nH]c4ccccc34)C(=O)NC1=O)cn2CCCN(C)C`, over 7.
As to `COc1ccc(C(=O)Nc2sc3c(c2C(N)=O)CCCC3)cc1OC`, the “time to death of most cells in well” value was over 7.
For `COc1ccc(-c2ccc3c(N4CCOC[C@@H]4C)nc(N4CCOC[C@@H]4C)nc3n2)cc1CO`, the “time to death of most cells in well” value is over 7.
The result for `CCOc1cc(N2CCC(O)CC2)ccc1Nc1ncc2c(n1)N(C)c1ccccc1C(=O)N2C` reads over 7; that for `C=CC(=O)Nc1ccc(CN2C(=O)N(c3cc(OC)cc(OC)c3)Cc3cnc(Nc4ccc(N5CCN(C)CC5)cc4)nc32)cc1`, over 7.
With `C=CC(=O)N1CCC[C@@H](n2nc(-c3ccc(Oc4ccccc4)cc3)c3c(N)ncnc32)C1` the figure was over 7.
With `N#C/C(=C(/N)Sc1ccc(N)cc1)c1ccccc1C(F)(F)F` the figure was over 7.
Regarding `O=C(Nc1cccc(Cl)c1)Nc1ncc(CCNc2ncnc3ccsc23)s1` [SNS-314 Mesylate], the “time to death of most cells in well” value is over 7.
With `Nc1nc(NCCNc2ncc(-n3ccnc3)c(-c3ccc(Cl)cc3Cl)n2)ccc1[N+](=O)[O-]` the figure was over 7.
